The results in this text go back to the supplement of paper PMC11417369.

Some of the results follow.

The test system of the assay is PF3D7_0420300 AP2 domain 1 (GST-tagged). Briefly: gcPBM binding intensity (ln(normalized median fluorescence intensity)); higher = stronger DNA binding. Put shortly:
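GST-tagged P. falciparum DNA-binding domains produced in E. coli were incubated for 1 h on an Agilent 4 × 180k array of primer-extended double-stranded 36-bp intergenic genomic probes with negative controls. Binding intensity is the highest Masliner-normalised natural-log median intensity across replicate spots of either probe orientation, with bound protein detected by Alexa488 anti-GST antibody at 488 nm.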
As for “ACATATTAATTATTATGACATACATATCAGTTATTA [TGCATGCA_negctrl_site126]”, the “gcPBM binding intensity (ln)” value is 9.2.
As for “TATATTATTTTATATTGTACATACCAAATATTATAT [XGTACX_site1693]”, the “gcPBM binding intensity (ln)” value turned out to be 9.24.
As to “CATGTGATAATGATTAGTACATAAACAAAAATATAT [XGTACX_site5866]”, the “gcPBM binding intensity (ln)” value was 9.53.
The figure for “AGAAAAATAAACAAATGTACAAATTATTACTATATA [XGTACX_site1087]” is 9.44; for “TATAATATTAATGACTGTACTCATACGTATATTTAT [XGTACX_site5493]” it is 9.37; for “AATTTTGTTTAGCACACACACATACATACATACATA [CACACA_site5707]” it is 10.1.
For “TTTAATTTATATTTTGTGCACATCTTATTATATATA [GTGCAC_site9630]”, the “gcPBM binding intensity (ln)” value stood at 9.41.
The figure for “CCCATTTTGACAAAAAGTACAAGTTCAGGTTTTATA [XGTACX_site1532]” is 9.22.
The result for “TTTCTCTTCTAAACATGTACAAAAATACATACATAT [XGTACX_site1365]” reads 9.14; that for “AAAAATTAAAATATTATAGTTGAAACTTTTATAAAT [TGCATGCA_negctrl_site454]”, 8.81.
With “TATATTTATTCCTGTTGTACTTTATATTATTTTTTT [XGTACX_site1415]”, the “gcPBM binding intensity (ln)” value was 9.79.
The result for “ATATATATATATATATGTACATACATACATAGAACT [XGTACX_site2214]” reads 9.51; that for “TCCCATTTATTATGGTGTACAATTAATTAAACATAA [XGTACX_site750]”, 8.88; that for “TTATATAAACACCAACGTACGTTCATTTAACATAAC [XGTACX_site5250]”, 9.33.
The result for “TATATATATATATATTGTACATATGTGGTATAAATG [XGTACX_site6108]” reads 9.43; that for “GCATATCTATTTTCACGTACACAAACATGTATATAT [XGTACX_site3722]”, 9.48.
On to “ATATTACATATGTGCTGTACGCAATATATTATATCT [XGTACX_site1520]”, for which the “gcPBM binding intensity (ln)” value amounted to 9.42.
The figure for “AAGAACTTTAATAAGTGTACATTTATTGGAAACATG [XGTACX_site2995]” is 9.19; for “TAAAATATAGAAAATTTTATTAAATATAAAAAAATA [CACACA_negctrl_site1441]” it is 8.88.
The figure for “AAAAATATATATTCAGTGCATATAACAAAAATTATA [GTGCAC_site9794]” is 9.28; for “ATTAAATAAAAAAACACACACATATATACATATATA [CACACA_site3445]” it is 9.89; for “CATAATAATAGAAACACACACACATAGACATATATA [CACACA_site1308]” it is 10.2.
The result for “CATATATAACCTATAGCACACATATATAATATATAT [CACACA_site8544]” reads 9.58; that for “TTTTTCATATGACACACACACAAAAATAATGTGGAA [CACACA_site7692]”, 9.76.
For “AAATGAACACGAAAGGAAAAAAAAATATATATATAT [CACACA_negctrl_site267]”, the “gcPBM binding intensity (ln)” value stood at 9.41.
The result for “TCATTTTATTATTCTACACACTTATCTATAATTATA [CACACA_site34]” reads 9.68.
For “ATAATTACATAGATTGGTACACATTTTTGATTGTAT [XGTACX_site3802]”, the “gcPBM binding intensity (ln)” value was 9.46.
The result for “TTAAAAATGTGTGTGCGTACATAATATTTCGAAAAA [XGTACX_site8197]” reads 9.61; that for “GTACAAATGATTAATCCTTTACTTATATATATATAT [XGTACX_negctrl_site138]”, 9.46.
As to “CATTTTTTTTTATAAATACACACGTACGGGTGCATA [CACACA_site1569]”, the “gcPBM binding intensity (ln)” value was found to be 9.13.
For “GAACATTTACGCCCCACACACCTACCAACAAAAAAA [CACACA_site7746]”, the “gcPBM binding intensity (ln)” value was 9.53.
As for “TTCTTAAAAAAAAATAAAATAAAAAAAAAAATAAAA [CACACA_negctrl_site99]”, the “gcPBM binding intensity (ln)” value stood at 9.09.
The result for “TTCTGGCAAAATAACACACACATATATTTTATATAC [CACACA_site3242]” reads 10.1.
The figure for “CAAAAACATACCTACACACACAATATGTATTTATAA [CACACA_site5862]” is 9.9.
The result for AAATGAATATTCATAGTGCAATATATAAATGAAAAT reads 9.46.
“TTTAATTATTAGTGTGCACACAACTATGAGTTTTTA [CACACA_site8997]”: the “gcPBM binding intensity (ln)” value amounted to 9.47.
The figure for “AATTACATTCAATTCTGTACTAATAGTAATTCAAAA [XGTACX_site7419]” is 9; for “TATAAAAAATTCTTCCTTATTTTATGATATATATAT [TGCATGCA_negctrl_site57]” it is 9.06.
The figure for “ATTTGCAGTATTTCGGAACACACAAACATAAATATG [CACACA_site8726]” is 9.34.
For “TATTCCTATAAAAAAACACACACATATAAATATATA [CACACA_site8727]”, the “gcPBM binding intensity (ln)” value came out at 9.74.
The figure for “AAATATATTTCACGCACACACACCCCAAATAAATTT [CACACA_site3820]” is 9.92; for “ATATTTCAAAATGAAAGTACATATAAAAATTATACA [XGTACX_site3787]” it is 9.13; for “AAGTATTTTTTTACATGTACATATATATATATATAT [XGTACX_site5065]” it is 9.36.
In the case of “AAATAGATAAGTAGGACACACATATATATATATTAA [CACACA_site1862]”, the “gcPBM binding intensity (ln)” value was found to be 9.59.
On to “TTTTTTTTTTTTTTCTGTACAAATTAAATCTACATA [XGTACX_site8285]”, for which the “gcPBM binding intensity (ln)” value was determined as 8.93.
GACATAAAATTCAAAGTGCATAAATAAAATAAACCC: the “gcPBM binding intensity (ln)” value turned out to be 9.49.
Take “TATTTTAATGAATTCACACATATAATTTATTTTATA [CACACA_site4538]”: the “gcPBM binding intensity (ln)” value is 9.03.
The figure for “ATATTTAAAAAATGATGTACAAAAATGTAGTCACAC [XGTACX_site6208]” is 9.24; for “GAAATTAAATGACATACACACTATATTATAGATTTT [CACACA_site7468]” it is 9.47.
The result for “ATATAAAACTAATTTCTTTTTCTCCTTTTATTTTGT [CACACA_negctrl_site1251]” reads 9.23.
In the case of “ATAGTATCTGGTAGCTGTACGAGTCGTAGAGTGTAA [XGTACX_site4936]”, the “gcPBM binding intensity (ln)” value came to 9.3.
“ATATATATATATAAATGTACAGATATATTTTTTATT [XGTACX_site5445]”: the “gcPBM binding intensity (ln)” value turned out to be 9.16.
The figure for “TTTAATTTGATAGACACATGCACACGTGCAATACTT [TGCATGCA_site777]” is 9.15; for “TACTAAAAAATATAAACACACATATATTTTACATAT [CACACA_site2042]” it is 9.55; for “AATATATATTAATAAAGTACAGGAAATATTTTTACC [XGTACX_site7052]” it is 9.51.
The figure for “AAAATACATAGACACACACACACACGGATATAAATA [CACACA_site7643]” is 10.2.
The figure for “TTTGTAAGAAATAAATGTACAAAAATTAATTTTTAT [XGTACX_site8983]” is 9; for “TATGTATATTTTAATTGTACGTGTATGGTTGTAAAT [XGTACX_site8738]” it is 9.33; for “CACTAATAGTGGATTACACACATATATCTGTATTTA [CACACA_site5403]” it is 9.42.
Turning to “TGATTAATAATTTTCTTCATACATTAAACATCTTTT [TGCATGCA_negctrl_site342]”, the “gcPBM binding intensity (ln)” value amounted to 9.02.
The result for “TTTTTTTTTTCATTAACACACATAAATATATATATA [CACACA_site5759]” reads 9.32; that for “TTAATGTTATATGTGTGTACATATAAGTTTAGTAAA [XGTACX_site4651]”, 9.37; that for “TTATATCTTATAAAATGTACATAAAATATATAATAT [XGTACX_site7647]”, 9.16.
The figure for “ATTAATTATATAATATGTACATATTACAAATATATA [XGTACX_site1478]” is 9.04; for “ATATTTTTCTTAAGTACACACTAAATAGAAACTAAA [CACACA_site4191]” it is 9.2.
In the case of “AATAATATAACAGAACAAAACTAAATATACACATAT [TGCATGCA_negctrl_site31]”, the “gcPBM binding intensity (ln)” value worked out at 9.78.
The figure for “TATTTCATAATAAATTGTACGCGTAGAAAACCATGA [XGTACX_site7506]” is 9.55.
The figure for “ATATTAAAATTAAACGCATGCATATATTATAAAAGA [TGCATGCA_site231]” is 9.11.
On to “CTAATTAATGGGTACATACACACATATATACATACA [CACACA_site743]”, for which the “gcPBM binding intensity (ln)” value was found to be 9.62.
The figure for “TTTTTATCAAATAAATGTACACATATTAAATGAAAT [XGTACX_site555]” is 9.08.
The result for “TTCTGTATAACACAAATTTTTTTTTATTCACTCTGT [TGCATGCA_negctrl_site410]” reads 9.19.
In the case of “AACACTTCATACACGTGTACAAATATAATATAGACA [XGTACX_site5671]”, the “gcPBM binding intensity (ln)” value was 9.48.
As for “AAAATATTCACGTGTACATATATATATATATATTAT [TGCATGCA_negctrl_site192]”, the “gcPBM binding intensity (ln)” value was found to be 9.39.
The figure for “GGAAATAATATTATTACACACCAAAATGTATAAAAA [CACACA_site4036]” is 9.39.
For “ATTTTCTATATCTTTCAACACACAAATTTTTTTTTC [CACACA_site7918]”, the “gcPBM binding intensity (ln)” value amounted to 9.36.
Regarding “TACATCAAACAAGTATGTACATATATATATATATAT [XGTACX_site7415]”, the “gcPBM binding intensity (ln)” value came out at 9.1.
The result for “TATGTAATAATAAACGGTACACTATATTGTATGAAA [XGTACX_site4648]” reads 9.52; that for “AATAAATAGTAGTAGGTGCTACTATATTATATATAT [GTGCAC_site9452]”, 9.2.
The figure for “GCATATGATGAGCATATAATCATAAGAAAAAAAAAA [CACACA_negctrl_site701]” is 8.98; for “TATATATATATAGATGCATGCAATTACATATAACAA [TGCATGCA_site118]” it is 9.41.
The figure for TTGTGTACATATTAAGTGCATATATATATATATATA is 9.64; for “ATATATATATCAAAATGTACAAAAATAGAATTTAAA [XGTACX_site8292]” it is 9.26; for CAGTAGTTTTTATGGGTGCAAAACATATATATAACA it is 9.29.
As for “AAACGGCTATTAAAATGTACATGTAAATATATTAAA [XGTACX_site918]”, the “gcPBM binding intensity (ln)” value is 9.24.
The result for “AATACATATGGGTGTACACATTATATATATATATAT [CACACA_site4601]” reads 9.41.
As for “ATCTTTTTACTTAATACACACACACCCAAAAAAAAA [CACACA_site8221]”, the “gcPBM binding intensity (ln)” value was 9.88.
Turning to “AAAATTAAAATATCACGTACGAAGAAAAAATTAAGA [XGTACX_site6437]”, the “gcPBM binding intensity (ln)” value turned out to be 9.43.
The result for “TACACCCACCAACACACACACACACTAATAAAAAAA [CACACA_site8060]” reads 10.1; that for “CCTTTCCTAGCACATGCACACAAAAAAAAAAAAAAA [CACACA_site8396]”, 9.12.
